Source: PubChem BioAssay AID938 (National Center for Advancing Translational Sciences (NCATS), 2007)
Hit rate of the full screen: of about 73,000 compounds, about 1,800 (2.5%) were called active. The shares of active, inactive and inconclusive entries below differ from those in the screen. Calls follow the shape of the dose curve; as a rule, active = well fitted activation curve with a large enough effect; inconclusive = small, poorly fitted or top-dose-only effect; inactive = no such curve, though single readings can be large or run the other way. Potencies of inconclusive entries are left out as doubtful fits.

Test: qHTS Assay for Agonists of the Thyroid Stimulating Hormone Receptor: Activators of Intracellular cAMP Concentrations in Parental HEK 293; also: nearly all actives have a fitted effect of over 55% in size
Details: parental HEK293 CNG cAMP sensor, membrane potential fluorescence; series mostly up to 57.1 µM
How it was run: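 Parental HEK 293 cells stably expressing a cAMP-gated CNG channel were loaded with membrane potential dye containing 100 uM RO 20-1724 for 60 min. Compound added for 30 min; depolarization read as fluorescence intensity at 590 nm.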
Potency is read from the fitted curve at half-maximal effect; tags tell the direction and shape of the fitted curve.

SMILES	Potency
CC12CCC(C(N)=O)(c3nc4ccccc4nc31)C2(C)C (stereo not given)	inactive
CC(=O)O[C@@H](C)C[N+](C)(C)C	inconclusive [activator, single point]
CCOC(=O)c1c(C)n(C)c2ccc(O)c(CN3CCC(C)CC3)c12	inconclusive [activator, partial curve]
COc1ccc(OC)c(Nc2nc(-c3cccs3)cs2)c1	inactive
Cc1nnc(NC(=O)c2ccco2)s1	inactive
c1ccc(CCn2nnnc2CN2CCN(C3CCCC3)CC2)cc1	inconclusive [activator, single point]
COc1cccc(-c2nc(CS(=O)CC(=O)NCc3ccccc3)c(C)o2)c1 (stereo not given)	inconclusive [activator, single point]
COC(=O)c1cc(OC)c(OC)cc1NC(=O)c1c(-c2ccccc2Cl)noc1C	inconclusive [activator, single point]
O=C(Nc1ccc(OC(=O)c2ccco2)cc1)c1ccco1	inactive
CSCCC(NC(N)=O)C(=O)NCc1ccccc1Cl (stereo not given)	inconclusive [activator, single point]
O=C1c2sc3nc4ccccc4n3c2C(=O)N1c1ccccc1Cl	inconclusive [activator, single point]
COc1ccc(O)c(/C=c2/sc3nc4cc(C)c(C)cc4n3c2=O)c1	active: 31.6 µM
O=C(Nc1ccc(-n2nncc2-c2ccco2)cc1)c1cccc(F)c1	inconclusive [activator, single point]
COc1cccc(C2=Nn3c(nnc3-c3ccccc3O)SC2)c1	inconclusive [activator, full curve]
O=C(Nn1cnnc1)c1ccncc1	inconclusive [activator, partial curve]
c1ccc(-n2nnnc2OCCOc2nnnn2-c2ccccc2)cc1	inconclusive [activator, partial curve]
COc1cccc(Cn2c(=O)c(-c3cn(C)c4ccccc34)nc3cnc(N4CCOCC4)nc32)c1	inconclusive [activator, single point]
CCOC(=O)c1sc(NC(=O)c2c(C)noc2C)c(C(=O)OCC)c1C	inactive
Cc1ccc(NC(=O)c2noc3c2CCCCC3)cc1C	inconclusive [activator, single point]
CC(C)C(c1nnnn1Cc1cccs1)N1CCN(c2ccccc2)CC1 (stereo not given)	inconclusive [activator, partial curve]
Cc1sc2nc(C(C)C)nc(SCC(=O)NCc3ccco3)c2c1C	inconclusive [activator, partial curve]
COC(=O)[C@@]1(Cc2ccc(F)cc2)[C@H]2c3cc(C(=O)N4CCCC4)n(Cc4ccc(C(F)(F)F)nc4)c3C[C@H]2CN1C(=O)c1ccccc1	inconclusive [activator, full curve]
Cc1nnc2c3ccccc3c(-c3ccccc3)nn12	inconclusive [activator, single point]

SMILES	Potency
CC(=O)NC(CCS(C)(=O)=O)C(=O)Nc1ccc(C)c(F)c1 (stereo not given)	inactive
Cc1c2c(nc3c(C)cccc13)OC(C)C2 (stereo not given)	active: 25.1 µM
CC(C)(C)C(=O)NC(c1ccc(Cl)cc1)[C@]1(C)C[C@H]1C1CCCCC1 (stereo not given in full)	inconclusive [activator, full curve]
CN1CCN(c2ncc3nc(CCc4ccccc4)c(=O)n(C4CC4)c3n2)CC1	inactive
Nc1c(NCCN2CCOCC2)c2ccccc2oc1=O	inactive
O=C(OCC(=O)N1CCN(C(=O)c2ccco2)CC1)c1cc(-c2ccccc2)nc2ccccc12	inactive
N#CCCn1c(=O)c(-c2ccc(F)cc2)nc2cnc(Oc3ccccc3)nc21	inconclusive [activator, single point]
CC1CCCN(C(C(=O)Nc2ccc3c(c2)OCCO3)c2ccccc2)C1 (stereo not given)	inconclusive [activator, single point]
Cc1cc(C)c(C#N)c(SCC(=O)Nc2nnc(-c3ccccc3)s2)n1	inconclusive [activator, single point]
CC(C)CNC(=O)CN(C1CCCCC1)S(C)(=O)=O	inconclusive [activator, single point]
CC(C)C(=O)Nc1cccc(C(=O)Nc2ccc3c(c2)OCO3)c1	inconclusive [activator, single point]
C=CCn1c(CSc2nc3ccccc3s2)nnc1SCC(=O)NCCN1CCOCC1	inconclusive [activator, single point]
COc1ccc(-c2noc(CCC(=O)NCC3CCN(Cc4cccc(C)c4)CC3)n2)cc1	inconclusive [activator, partial curve]
CCC(=O)c1ccccc1OCCCn1cncn1	inconclusive [activator, partial curve]
CCn1cc(C(=O)OCc2cccc(Br)c2)c(=O)c2ccc(C)nc21	inconclusive [activator, partial curve]
Cc1c(C#N)c2ccccc2n1CC(=O)N1CCc2ccccc2C1	inconclusive [activator, single point]
COc1ccc(N2CCN(c3oc(COc4ccc(Cl)cc4Cl)nc3C#N)CC2)cc1	inconclusive [activator, full curve]
COc1ccc(OC)c(Nc2cc(-c3ccccc3)nc(N)n2)c1	inconclusive [activator, partial curve]
CCN(CC)C(=O)CC(c1ccc(F)cc1)c1ccco1 (stereo not given)	inconclusive [activator, single point]
CN1CCN(CCCNC(=O)c2cc3c(=O)n(C)c4ccccc4c3s2)CC1	inactive
O=C(CSc1nnc(COc2ccccc2)n1Cc1ccco1)NCc1ccco1	inconclusive [activator, full curve]
CC(=O)CCc1c(C)c2cccc(C)c2[nH]c1=O	inconclusive [activator, single point]
